# Experimental data published in PubChem BioAssay AID1346428 (National Center for Advancing Translational Sciences (NCATS), 2018).
# Among all 48,000 compounds or so, about 1,200 (2.5%) were called active. Roughly 2% stayed inconclusive and do not appear here.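 The calls were made as follows: active = activation of at least 60% and not above a set upper limit (about 1 call in 100 departs from these limits); inconclusive = activation of 40% to 60%, or above that upper limit; inactive = activation under 40%.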 The list shows a part of the results.
# Molecular target: Probable G-protein coupled receptor 32 (Homo sapiens) (UniProt O75388)
# Experiment: qHTS for Agonists of Human Resolvin D1 Receptor DRV1; also: 0% is about no effect
# Conditions: CHO-K1 GPR32 beta-arrestin PathHunter luminescence, 90 min; at 76.9 µM; hits give high values; zero percent set by DMSO-only wells
# Outline: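 Beta-arrestin recruitment read-out: luminescence from complemented beta-Gal in CHO-K1 GPR32 PathHunter cells, measured 1 h after detection reagent at ambient temperature following 90 min compound exposure at 37 °C; DMSO served as basal (EC0) control.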
# Chain of UniProt O75388 (O75388 whole entry, looked up): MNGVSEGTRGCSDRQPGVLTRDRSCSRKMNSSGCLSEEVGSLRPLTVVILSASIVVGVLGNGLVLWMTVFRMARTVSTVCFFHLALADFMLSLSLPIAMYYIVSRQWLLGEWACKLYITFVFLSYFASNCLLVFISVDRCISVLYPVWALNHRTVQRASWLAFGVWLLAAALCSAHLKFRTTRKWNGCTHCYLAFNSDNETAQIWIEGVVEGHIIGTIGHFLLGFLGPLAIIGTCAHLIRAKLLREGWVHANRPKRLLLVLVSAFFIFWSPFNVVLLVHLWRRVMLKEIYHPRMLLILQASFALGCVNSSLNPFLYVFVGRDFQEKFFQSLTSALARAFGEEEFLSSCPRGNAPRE
row,SMILES,activation
1,COc1cccc(C(c2sc3nc(-c4ccco4)nn3c2O)N2CCOCC2)c1 (stereo not drawn),inactive: 4.33%
2,COc1ccc(N(CC(=O)NCc2ccccc2Cl)S(=O)(=O)c2c(C)[nH]c(=O)[nH]c2=O)cc1,inactive: -12.4%
3,O=C(C1COc2ccccc2O1)N1CCN(c2nc3c(F)cccc3s2)CC1 (stereo not drawn),inactive: -11.6%
4,NS(=O)(=O)c1cc(C2(O)NC(=O)c3ccccc32)ccc1Cl (stereo not drawn),inactive: -14.1%
5,COCCNC(=O)C1CCC(CNS(=O)(=O)c2ccc3c(c2)CC(C)N3C(C)=O)CC1 (stereo not drawn),inactive: -10.5%
6,CC(C)C(=O)Nc1nnc(S(=O)(=O)N2CCCCCC2)s1,inactive: 1.7%
7,COc1cc(C(CC(=O)Nc2ccc(Br)cn2)N2Cc3ccccc3C2=O)cc(OC)c1OC (stereo not drawn),inactive: 18.1%
8,Cc1c(C(=O)Nc2cccc(F)c2)oc2c1-c1nn(Cc3c(F)cccc3Cl)cc1CC2,inactive: -19.9%
9,Cc1ccc2c(c1)N(C(=O)CCC(=O)Nc1ccc(F)cc1F)CC(C)O2 (stereo not drawn),inactive: -24.2%
10,Cc1c(C(=O)Nc2cccc(C(F)(F)F)c2)oc2ccc(S(=O)(=O)N3CCC4(CC3)OCCO4)cc12,inactive: 5.73%
11,CCN[C@H]1CN(CCCOC)S(=O)(=O)c2sc(S(N)(=O)=O)cc21,inactive: -8.19%
12,COc1ccc(NC(=O)CSc2c3c(nc4ccccc24)CCC3)cc1Cl,inactive: 0.832%
13,CC(C)(C)C(=O)Nc1nnc2n1CCS2,inactive: 42%
14,Cc1nn(S(=O)(=O)c2ccc(F)cc2)c(C)c1S(=O)(=O)N1CCCCC1,inactive: -7.28%
15,CC(C)(C)c1ccc(C(=O)N2CCC(c3noc(-c4ccc(S(=O)(=O)N5CCCC5)cc4)n3)CC2)cc1,inactive: -1.38%
16,Cc1ccccc1CNC(=O)CCc1cn(Cc2ccccc2C)c2ccccc12,inactive: -27.9%
17,CCOc1ccc(NC(=O)c2ccc3c(c2)nnn3C2CCCC2)cc1,inactive: 6.48%
18,CCN(CC)S(=O)(=O)c1ccc(NC(=O)c2ccc3c(=O)n4c(nc3c2)CCCCC4)cc1,inactive: 36.7%
19,CCOc1ccccc1N(C)C(=O)c1cc(S(=O)(=O)NCCc2ccc(Cl)cc2)ccc1F,inactive: -18.5%
20,CCc1ccccc1NC(=O)CSc1nc(C)c(C(=O)Nc2ccccc2)c(-c2ccc(Cl)cc2)c1C#N,inactive: -24.1%
21,O=C(Nc1ccc(-c2nc3ccccc3s2)c(O)c1)c1ccc(Br)cc1,inactive: 14.5%

row,SMILES,activation
1,CCOC(=O)c1c(C)[nH]c(C)c1S(=O)(=O)N1CCC(C(=O)NCc2cccc(C)c2)CC1,inactive: -1.54%
2,Cc1ccc(NC(=O)C2CCN(S(=O)(=O)c3cccc4nonc34)CC2)c(Cl)c1,inactive: 15.7%
3,Cc1cc(=O)c2c(O)c3c(O)cc(=O)c4c3c3c(cc(O)c1c23)C(C)(C)C=4O,inactive: 11.6%
4,CCOC(=O)C1=C(CS(=O)(=O)c2ccc(C(C)(C)C)cc2)NC(=O)NC1c1cccc(OC)c1 (stereo not drawn),inactive: 15.9%
5,Cc1cccc(NC(=O)CSc2nnc3[nH]c(=O)cc(C)n23)c1C,inactive: 4.46%
6,COc1ccc(-c2cc3c(=O)n(CC(=O)Nc4ccc(Br)c(C)c4)ccn3n2)cc1OC,inactive: -6.83%
7,COc1ccc(N2CCN(C(=O)c3cnc(SC)nc3C)CC2)cc1,inactive: 13.5%
8,O=C(CCn1c(=O)c2cccn2c2cccnc21)Nc1ccccc1Br,inactive: -8.99%
9,O=C(CSCc1ccc(F)cc1)N1CCc2c([nH]c3ccccc23)C1c1ccc(F)cc1 (stereo not drawn),inactive: -41%
10,Cc1cc(S(=O)(=O)Nc2cc3c(cc2NCc2ccccc2)n(C)c(=O)n3C)ccc1F,inactive: 27%
11,CCOC(=O)c1cc(-c2ccc(OC)cc2)n(CCC(=O)NCc2ccccc2OC)c1C,inactive: -26.4%
12,CCOc1ccc(NC(=O)CSc2ncn[nH]2)cc1,inactive: -10.3%
13,Cc1ccsc1CN(Cc1ccco1)C(=O)c1ccc(Cl)cc1,inactive: 1.88%
14,Cc1ccc(C)c(N2CCN(S(=O)(=O)c3ccc(-c4cc(C(F)(F)F)on4)s3)CC2)c1,inactive: 6.09%
15,COc1cc(OC)c(N(C)C(=O)c2cn(C)c(=O)c3cc(OC)c(OC)cc23)cc1Cl,inactive: 0.869%
16,O=C(Nc1nc2c(F)cc(F)cc2s1)c1ccc2c(c1)OCCO2,inactive: 4.56%
17,O=C(CN1C(=O)COc2ccc(S(=O)(=O)N3CCOCC3)cc21)Nc1ccc(F)c(Cl)c1,inactive: -19.6%
18,O=C(Nc1nc2ccc(F)cc2s1)c1nc(SCc2ccccc2F)ncc1Cl,inactive: -18.4%
19,Cc1c(Cl)cccc1NC(=O)C1CCCN(C(=O)c2cnn(-c3ccccc3)c2-n2cccc2)C1 (stereo not drawn),inactive: 2.99%
20,CC(C)c1c(C(=O)Nc2ccccc2)c(-c2ccccc2)c(-c2ccc(F)cc2)n1CC[C@@H](O)C[C@@H](O)CC(=O)O,inactive: -2.27%
21,O=C(NCCc1ccc(Cl)cc1)C(=O)NCC(c1ccc2c(c1)OCO2)N1CCOCC1 (stereo not drawn),inactive: -18.9%

row,SMILES,activation
1,Cc1cc(C)c(S(=O)(=O)NCCc2sc(-c3cccnc3)nc2C)c(C)c1,active: 68.7%
2,O=C(Nc1cc(C(F)(F)F)ccc1Cl)c1cc(-c2cccs2)nc2ccccc12,inactive: 9.94%
3,Cn1c(=O)c2cc(C(=O)N3CCN(c4cccc(C(F)(F)F)c4)CC3)sc2c2ccccc21,inactive: 2.51%
4,Cc1cc(S(=O)(=O)Nc2cc3c(cc2Cl)n(C)c(=O)c(=O)n3C)ccc1F,inactive: -1.07%
5,Cc1cc(Cl)ccc1OCc1nc(-c2ccc(-n3cccc3)cc2)no1,inactive: -9.47%
6,OC(Cn1cncn1)(Cn1cncn1)c1ccc(F)cc1F,inactive: -7.24%
7,CCCNC(=O)CCc1nnc2ccc(N3CCN(c4cccc(OC)c4)CC3)nn12,inactive: -5.13%
8,CCCCN(C)CCNC(=O)c1c2c(nc3ccccc13)C(=O)N(C1CCCCC1)C2,inactive: -10.9%
9,CCCCOC(=O)c1ccc(NC(=O)c2cc3c(=O)n4cccc(C)c4nc3s2)cc1,inactive: 6.16%
10,Cc1c(C(=O)NCC(c2ccc(Cl)cc2)N2CCOCC2)oc2ccccc12 (stereo not drawn),inactive: -25%
11,CCOc1ccc(N2CC(c3nc4ccccc4n3CCCOc3ccccc3)CC2=O)cc1 (stereo not drawn),inactive: -14.4%
12,CC(C)(C)OC(=O)N1CCC(c2c(C(=O)NCCN3CCc4ccccc4C3)cnn2-c2ccc(F)cc2F)CC1,inactive: -41.8%
13,Cc1ccc(CN2CCC(CNC(=O)Nc3ccc(Cl)cc3)C2)cc1 (stereo not drawn),inactive: -7.97%
14,CCC(=O)N1CCc2cc(Br)cc(S(=O)(=O)CCC(=O)NCCc3cccc(C)c3)c21,inactive: -19.4%
15,Cc1ccc(NC(=O)CCn2c(=O)c3cccn3c3ccccc32)cc1C,inactive: -32%
16,Cc1ccc(-n2c(=O)c3cccnc3n2CC(=O)Nc2ccc(Br)cc2)cc1C,inactive: -3.38%
17,CC(Oc1ccc(F)cc1)C(=O)N1CCC(c2nc3ccccc3s2)CC1 (stereo not drawn),active: 67.2%
18,Cc1cc(C)cc(NC(=O)C(Cc2ccccc2)NS(=O)(=O)c2ccc3c(c2)c(=O)n(C)c(=O)n3C)c1 (stereo not drawn),inactive: 3.11%
19,Cn1ncc2c(N3CCN(c4cccc(Cl)c4)CC3)ncnc21,inactive: 2.45%
20,CCOC(=O)N1CCc2c(sc(NCc3sccc3C)c2C(=O)Nc2ccc(OC)cc2OC)C1,active: 117%
21,COc1ccc(C)cc1NC(=O)CCS(=O)(=O)c1cc2c3c(c1)CCN3C(=O)CC2,inactive: -5.47%

row,SMILES,activation
1,COc1ccccc1N1CCN(C(=O)c2nc(SC)ncc2Cl)CC1,inactive: -51.6%
2,CCOc1ccc(Oc2nc(NCC(C)C)nc(N3CCOCC3)n2)nn1,inactive: -12.1%
3,COc1ccc(/C=C/C(=O)Nc2ccc3nc4c(c(Nc5ccccc5OC)c3c2)CCCC4)cc1,inactive: -22.7%
4,O=C(c1ccc2c(c1)N(Cc1cccc(F)c1)C(=O)c1ccccc1S2)N1CCOCC1,inactive: -35.6%
5,Cc1ccc(S(=O)(=O)c2nnn3c2nc(N2CCN(c4ccccc4F)CC2)c2cc(Cl)ccc23)cc1C,inactive: -9.42%
6,Cc1ccc(S(=O)(=O)c2nnn3c2nc(N2CCCC2)c2sccc23)cc1C,inactive: -2.92%
7,CC(=O)N1c2c(cc(Br)cc2S(=O)(=O)N2CCN(c3cc(C)ccc3C)CC2)CC1C (stereo not drawn),inactive: -3.39%
8,Cc1ccccc1CN1C(=O)c2ccccc2S(=O)c2ccc(C(=O)NC3CCC(C)CC3)cc21 (stereo not drawn),inactive: -19.5%
9,CCc1ccc(NC(=O)c2sc3nc(C)c(Cl)c(C)c3c2NC(=O)c2ccccc2OC)cc1,inactive: -0.804%
10,CC1=C(C#N)C(NC(=O)c2ccccc2Cl)(C(F)(F)F)C(=O)N1 (stereo not drawn),inactive: -10.7%
11,COc1ccc(OC)c(NC(=O)C2=C(C)C(=O)OC23CCCCCC3)c1,inactive: 0.837%
12,CCN(CC)CCCNC(=O)c1cn(C)c2ccc(S(=O)(=O)N(C)C3CCCCC3)cc2c1=O,inactive: 2.7%
13,CCN(CC)CCCNC(=O)c1cnc(SC)nc1-c1ccccc1,inactive: -0.378%
14,Cc1ccc(CN(C(=O)COc2ccc([N+](=O)[O-])cc2)c2ccccn2)cc1,inactive: -3.14%
15,O=C(COc1ccc(Cl)cc1)Nc1nnc(S(=O)(=O)N2CCc3ccccc32)s1,inactive: 20.2%
16,COc1cccc(-c2ncnn2-c2sc3c(c2C#N)CCCCC3)c1OC,inactive: 18.6%
17,CCN(C(=O)CSc1nc2ncccc2[nH]1)c1ccc(C(C)C)cc1,inactive: 7.73%
18,Cc1ccc2c(=O)cc(C(=O)Nc3nc4ccc(Cl)cc4s3)oc2c1C,inactive: 3.7%
19,CCOCCc1nn2c(=O)cc(COC(=O)CNC(=O)c3cccc(C)c3)nc2s1,inactive: 26.7%
20,Cc1nn(CC(=O)N2CCC(C)CC2)c(=O)c2cc3sccc3n12,inactive: 3.86%
